# In the supplement of paper PMC8728848:
# This is one part of the list.
# B1: rMpL (Macrolepiota procera) (protein)
# chain: MSTQVSSGRTYKITNVIAGTVIDLSGEDNKSIIGYPYHSGKNQQWTFNWTGKAWTLRSASSGSYLGIEGTPAGGTRLVAVNDPFEWHIWRDEANENAFRIFVPFTNYNLDLSGYGDTTPGTPVQLWWTWEGLHQTWTIDRP
# Key:
# Assay in all cases: glycan array binding signal (z-score within array); higher = stronger binding
# Settings in all cases: glycan notation: IUPAC condensed, linker removed
# [1] = target: Fuc(a1-2)[GalNAc(b1-3)]Gal
# Outline: (§1)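 Glycan array data were curated from 3228 arrays in the Consortium for Functional Glycomics database and kept only where the protein sequence was available. Glycan names were converted to IUPAC-condensed notation, and columns mapping to the same glycan were averaged. The binding signal is a within-array Z-score, averaged across arrays of the same protein sequence at different concentrations or buffers and across linkers. Negative Z-scores can be read as non-binding.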
# [2] = target: Fuc(a1-3)GlcNAc
# Outline: as §1
# [3] = target: Fuc(a1-3)[Gal(b1-4)]Glc6S
# Outline: as §1
# [4] = target: Fuc(a1-3)[Gal(b1-4)]GlcNAc
# Outline: as §1
# [5] = target: Fuc(a1-3)[Gal(b1-4)]GlcNAc(b1-2)Man
# Outline: as §1
# [6] = target: Fuc(a1-3)[Gal(b1-4)]GlcNAc(b1-2)Man(a1-3)[Fuc(a1-3)[Gal(b1-4)]GlcNAc(b1-2)Man(a1-6)]Man(b1-4)GlcNAc(b1-4)GlcNAc
# Outline: as §1
# [7] = target: Fuc(a1-3)[Gal(b1-4)]GlcNAc(b1-2)Man(a1-3)[Fuc(a1-3)[Gal(b1-4)]GlcNAc(b1-2)Man(a1-6)]Man(b1-4)GlcNAc(b1-4)[Fuc(a1-6)]GlcNAc
# Outline: as §1
# [8] = target: Fuc(a1-3)[Gal(b1-4)]GlcNAc(b1-3)Gal(b1-3)[Fuc(a1-4)]GlcNAc
# Outline: as §1
# [9] = target: Fuc(a1-3)[Gal(b1-4)]GlcNAc(b1-3)Gal(b1-4)[Fuc(a1-3)]GlcNAc
# Outline: as §1
# [10] = target: Fuc(a1-3)[Gal(b1-4)]GlcNAc(b1-3)Gal(b1-4)[Fuc(a1-3)]GlcNAc(b1-3)Gal(b1-4)[Fuc(a1-3)]GlcNAc
# Outline: as §1
# [11] = target: Fuc(a1-3)[Gal(b1-4)]GlcNAc(b1-3)GalNAc
# Outline: as §1
# [12] = target: Fuc(a1-3)[Gal(b1-4)]GlcNAc(b1-4)Gal(b1-4)[Fuc(a1-3)]GlcNAc
# Outline: as §1
# [13] = target: Fuc(a1-3)[Gal(b1-4)]GlcNAc(b1-4)Gal(b1-4)[Fuc(a1-3)]GlcNAc(b1-4)Gal(b1-4)[Fuc(a1-3)]GlcNAc
# Outline: as §1
# [14] = target: Fuc(a1-3)[Gal(b1-4)]GlcNAc(b1-6)GalNAc
# Outline: as §1
# [15] = target: Fuc(a1-3)[Gal(b1-4)]GlcNAc(b1-6)[Gal(b1-3)GlcNAc(b1-3)]Gal(b1-4)Glc
# Outline: as §1
# [16] = target: Fuc(a1-3)[Gal(b1-4)]GlcNAc6S
# Outline: as §1
# [17] = target: Fuc(a1-3)[Gal3S(b1-4)]Glc
# Outline: as §1
# [18] = target: Fuc(a1-3)[Gal3S(b1-4)]GlcNAc
# Outline: as §1
# [19] = target: Fuc(a1-3)[Gal3S(b1-4)]GlcNAc6S
# Outline: as §1
# [20] = target: Fuc(a1-3)[GalNAc(b1-4)]GlcNAc
# Outline: as §1
# [21] = target: Fuc(a1-3)[GalNAc(b1-4)]GlcNAc6S
# Outline: as §1
# [22] = target: Fuc(a1-4)GlcNAc
# Outline: as §1
# [23] = target: Fuc(b1-3)GlcNAc
# Outline: as §1
# [24] = target: Gal(a1-2)Gal
# Outline: as §1
# [25] = target: Gal(a1-3)Gal
# Outline: as §1
# [26] = target: Gal(a1-3)Gal(b1-3)GlcNAc
# Outline: as §1
# [27] = target: Gal(a1-3)Gal(b1-3)GlcNAc(b1-2)Man
# Outline: as §1
# [28] = target: Gal(a1-3)Gal(b1-3)GlcNAc(b1-2)Man(a1-3)[Gal(a1-3)Gal(b1-3)GlcNAc(b1-2)Man(a1-6)]Man(b1-4)GlcNAc(b1-4)GlcNAc
# Outline: as §1
# [29] = target: Gal(a1-3)Gal(b1-3)GlcNAc(b1-3)GalNAc
# Outline: as §1
# [30] = target: Gal(a1-3)Gal(b1-3)GlcNAc(b1-6)GalNAc
# Outline: as §1
# [31] = target: Gal(a1-3)Gal(b1-3)[Fuc(a1-4)]GlcNAc(b1-2)Man(a1-3)[Gal(a1-3)Gal(b1-3)[Fuc(a1-4)]GlcNAc(b1-2)Man(a1-6)]Man(b1-4)GlcNAc(b1-4)GlcNAc
# Outline: as §1
# [32] = target: Gal(a1-3)Gal(b1-4)Glc
# Outline: as §1
# [33] = target: Gal(a1-3)Gal(b1-4)GlcNAc
# Outline: as §1
# [34] = target: Gal(a1-3)Gal(b1-4)GlcNAc(b1-2)Man
# Outline: as §1
# [35] = target: Gal(a1-3)Gal(b1-4)GlcNAc(b1-2)Man(a1-3)[Gal(a1-3)Gal(b1-4)GlcNAc(b1-2)Man(a1-6)]Man(b1-4)GlcNAc(b1-4)GlcNAc
# Outline: as §1
# [36] = target: Gal(a1-3)Gal(b1-4)GlcNAc(b1-3)GalNAc
# Outline: as §1
# [37] = target: Gal(a1-3)Gal(b1-4)GlcNAc(b1-6)GalNAc
# Outline: as §1
# [38] = target: Gal(a1-3)Gal(b1-4)[Fuc(a1-3)]GlcNAc
# Outline: as §1
# [39] = target: Gal(a1-3)Gal(b1-4)[Fuc(a1-3)]GlcNAc(b1-2)Man(a1-3)[Gal(a1-3)Gal(b1-4)[Fuc(a1-3)]GlcNAc(b1-2)Man(a1-6)]Man(b1-4)GlcNAc(b1-4)GlcNAc
# Outline: as §1
# [40] = target: Gal(a1-3)GalNAc
# Outline: as §1
# [41] = target: Gal(a1-3)[Gal(a1-4)]Gal(b1-4)GlcNAc
# Outline: as §1
# [42] = target: Gal(a1-4)Gal(b1-3)GlcNAc(b1-2)Man(a1-3)[Gal(a1-4)Gal(b1-3)GlcNAc(b1-2)Man(a1-6)]Man(b1-4)GlcNAc(b1-4)GlcNAc
# Outline: as §1
# [43] = target: Gal(a1-4)Gal(b1-4)Glc
# Outline: as §1
# [44] = target: Gal(a1-4)Gal(b1-4)GlcNAc
# Outline: as §1
# [45] = target: Gal(a1-4)Gal(b1-4)GlcNAc(b1-2)Man(a1-3)[Gal(a1-4)Gal(b1-4)GlcNAc(b1-2)Man(a1-6)]Man(b1-4)GlcNAc(b1-4)GlcNAc
# Outline: as §1
binder,measurement,setting,value
B1,glycan array binding signal (z-score),[1],-0.142
same,glycan array binding signal (z-score),[2],-0.378
same,glycan array binding signal (z-score),[3],-0.19
same,glycan array binding signal (z-score),[4],-0.362
same,glycan array binding signal (z-score),[5],-0.35
same,glycan array binding signal (z-score),[6],-0.285
same,glycan array binding signal (z-score),[7],-0.118
same,glycan array binding signal (z-score),[8],-0.253
same,glycan array binding signal (z-score),[9],-0.251
same,glycan array binding signal (z-score),[10],-0.37
same,glycan array binding signal (z-score),[11],-0.234
same,glycan array binding signal (z-score),[12],-0.279
same,glycan array binding signal (z-score),[13],-0.245
same,glycan array binding signal (z-score),[14],-0.065
same,glycan array binding signal (z-score),[15],0.552
same,glycan array binding signal (z-score),[16],-0.172
same,glycan array binding signal (z-score),[17],-0.26
same,glycan array binding signal (z-score),[18],-0.253
same,glycan array binding signal (z-score),[19],-0.311
same,glycan array binding signal (z-score),[20],-0.26
same,glycan array binding signal (z-score),[21],-0.375
same,glycan array binding signal (z-score),[22],-0.316
same,glycan array binding signal (z-score),[23],-0.333
same,glycan array binding signal (z-score),[24],-0.277
same,glycan array binding signal (z-score),[25],-0.212
same,glycan array binding signal (z-score),[26],-0.121
same,glycan array binding signal (z-score),[27],-0.233
same,glycan array binding signal (z-score),[28],-0.203
same,glycan array binding signal (z-score),[29],-0.292
same,glycan array binding signal (z-score),[30],-0.297
same,glycan array binding signal (z-score),[31],-0.131
same,glycan array binding signal (z-score),[32],-0.194
same,glycan array binding signal (z-score),[33],-0.311
same,glycan array binding signal (z-score),[34],-0.39
same,glycan array binding signal (z-score),[35],-0.031
same,glycan array binding signal (z-score),[36],-0.326
same,glycan array binding signal (z-score),[37],-0.27
same,glycan array binding signal (z-score),[38],-0.328
same,glycan array binding signal (z-score),[39],-0.104
same,glycan array binding signal (z-score),[40],-0.328
same,glycan array binding signal (z-score),[41],-0.235
same,glycan array binding signal (z-score),[42],-0.165
same,glycan array binding signal (z-score),[43],-0.271
same,glycan array binding signal (z-score),[44],-0.406
same,glycan array binding signal (z-score),[45],0.109
